For 167 variants, self-cleavage results are on record in the RNAGym collection of RNA variant scans (doi:10.7554/elife.90254).

The source gives no read counts; variants with many changes may rest on few reads.

B1: LINE1-full (parent)
chain: UACGUAGGUGGUUUUCCCCUGAUAGUGCUAAGGGGGCCUGGAAGUUUGGACUGGGCAGAGCUCAACACAGCGUGGCAAAGUGGCUGUGGCUAGACUGCCUCUCUGGAUUCCUCGUCACUCAGCAGGGCAUCUCUGAGAGAAAUGCC

The data set covers variants of B1. Kind of data set: self-cleavage, relative activity (ratio to wild type); higher = more cleavage; in vitro, sequencing; the parent is a self-cleaving ribozyme.
As for U15C A22G U26C, the self-cleavage came to 0.97.
With U15C G33A A77G, the self-cleavage worked out at 1.84.
Regarding U14G G32A U102C, the self-cleavage turned out to be 1.28.
In the case of U15C A65G A124U, the self-cleavage is 0.04.
As for U15C C19U C63U A67G A78G A141G, the figure is 0.13; as for U15A U100C U104A A124C, 2.63; as for U15C A50G A77U A94U A136G, 0.13.
For the variant U15C U23C A67U A107G, the self-cleavage came to 0.16.
Under U14C U96C A117U stands 0; under U15A U20A G49A A69G C84A U119C U134C, 0.03.
Take U15A A57U U91A U119A A142G: the self-cleavage worked out at 0.06.
As to U14C U73C A79G, the self-cleavage was found to be 1.84.
Turning to U14C U73A U96C U102C A142G, the self-cleavage stood at 0.29.
Take U15C U20G A42U U115C A138G: the self-cleavage was determined as 0.51.
For U14C U100C C145U, the self-cleavage worked out at 1.68.
As for U14C U132C A136G, the figure is 1.71; as for U15C U46C G83U U134C, 1.07.
Consider U15C G72C U85C, for which the self-cleavage came to 0.32.
U14C U130C A140G U143C: the self-cleavage is 0.51.
For U14C U108C U134A, the self-cleavage was 1.56.
For U15C A42G U73G U104A A107G, the self-cleavage came to 1.72.
In the case of U14C U100C A142G, the self-cleavage is 0.93.
For U15C C37U U85A, the self-cleavage was 0.05.
Turning to U15C U26G C90U, the self-cleavage is 0.11.
As for U14G A57U A59G A107G, the self-cleavage was found to be 0.
Take U15C A43G U108C A121U: the self-cleavage came to 1.34.
As for U15C A64G U81C U104C, the figure is 0; as for U15A G58U U104C U119C, 0.09; as for U15C U39A U73C C95A, 0.26.
With U15A A69C U102A, the self-cleavage was 0.
Turning to U15C A57U A136U, the self-cleavage is 0.12.
Under U15C U46A U91A A92U stands 1.09.
On to U15C A50G A69U C99U, for which the self-cleavage was determined as 0.02.
Consider U14C U132C A142G, for which the self-cleavage is 1.11.
Turning to U15C U29C A30G A77U U119A, the self-cleavage was 1.2.
As to U15A C56U U104C, the self-cleavage stood at 0.
Turning to U15C U62C U73C A77U G114A C120U G127U A129G, the self-cleavage is 0.01.
Under U15C U52A A57G U81C stands 0.97; under U15C A78G U102C, 1.56.
In the case of U15C C37U A59G, the self-cleavage was 0.08.
For U15A C37G U100C, the self-cleavage is 0.92.
Turning to U14G U20C U81C A142G, the self-cleavage amounted to 0.
Regarding U14C U87G U134G, the self-cleavage turned out to be 0.3.
U14C U96C A107G A142G: the self-cleavage came to 0.18.
U15C A42G U73A: the self-cleavage was 1.43.
In the case of U14C U132C A140G, the self-cleavage was 1.42.
Take U15A A30U U46A U100C: the self-cleavage was found to be 1.07.
Regarding U15C C37A G105U A138G, the self-cleavage was determined as 1.47.
Consider U14C U47C A67G U130C, for which the self-cleavage is 1.15.
For the variant U15C U62C A77G, the self-cleavage is 0.11.
U15C U26G A141G: the self-cleavage stood at 1.23.
Consider U15C G53A A124G A142G, for which the self-cleavage stood at 1.03.
As to U15A A59U G82A, the self-cleavage was determined as 0.85.
For the variant U15C U47C A67G A121U A129U, the self-cleavage came out at 0.41.
Regarding U15A U20C A50G, the self-cleavage came out at 0.42.
Regarding U14C U47C U81C, the self-cleavage turned out to be 0.
Take U14C U62A A124U A138U: the self-cleavage was found to be 0.04.
Regarding U14G U62A U87A A141G, the self-cleavage is 0.12.
U15C A78G U143C: the self-cleavage is 1.15.
As for U15C U46G A138G, the figure is 1.48.
On to U15A U29A A78U, for which the self-cleavage is 1.54.
With U15C A31U U47A A64G U73C, the self-cleavage came out at 0.
In the case of U14C U47G A136G, the self-cleavage was 0.55.
Under U15C G33U C56U A69G U85C U143C stands 0.23; under U14C U47C U109A, 0.43; under U15A U39C A92G, 0.88.
In the case of U15C U26C A30C A31G A79G G106A C123U, the self-cleavage was determined as 0.75.
Regarding U15A U109C C146U, the self-cleavage came out at 0.86.
For the variant U15C A57U A94U U104C, the self-cleavage came to 0.12.
As for U15C A42G A77G, the figure is 2; as for U14C U85C A121G, 0.
Under U15C U52A U91C stands 0; under U15A U91G U132C, 0.17.
Regarding U15A G49A U132C, the self-cleavage was found to be 1.13.
Regarding U14G U23C A79G U143A, the self-cleavage was 1.24.
For U14C U102A U143C, the self-cleavage worked out at 1.3.
Under U14C U87C A107G stands 0.24; under U15A U23C U39A U87A A92U, 0.1.
Turning to U15C A24U A94G G105A, the self-cleavage was found to be 0.59.
As to U15A A22G G70A A78G, the self-cleavage was determined as 0.15.
Take U14C U87A U115A A142G: the self-cleavage is 0.18.
Consider U14C U47C U62A U108C A140U, for which the self-cleavage stood at 0.49.
Take U14C U52C U108C: the self-cleavage came out at 0.
Under U15C G36A G54U U108A stands 0.5; under U14C U52A A67G U100C U115A A140G, 0.51.
For U15A U81A U132A, the self-cleavage worked out at 1.63.
U15C A136G A138G: the self-cleavage is 0.61.
Take U15C A43G G97A U115A A141G: the self-cleavage amounted to 0.07.
Consider U15A A31G U134C, for which the self-cleavage worked out at 0.79.
U15C U85A A94U: the self-cleavage was 0.12.
As for U15C A64C C123U, the figure is 0.66; as for U14C U85C U109C U130C, 0.59.
Take U14C U62C A136G: the self-cleavage stood at 0.09.
In the case of U14C U62C U108C, the self-cleavage was 0.13.
Turning to U14C U47A A124G, the self-cleavage was found to be 1.12.
Regarding U15A G36U A43G A69U, the self-cleavage was found to be 0.08.
As to U14C U109A U134C, the self-cleavage is 1.54.
U14G C37U A59U: the self-cleavage is 1.31.
As to U15C G53C U73C G105U, the self-cleavage amounted to 1.66.
As to U15C C28G U81A U134C U143A, the self-cleavage amounted to 1.06.
As for U15C A22G U73C, the figure is 1.75.
On to U14C U85A U100C, for which the self-cleavage was determined as 0.24.
With U15A U81G A121U C145U, the self-cleavage stood at 0.84.
For the variant U15C A50G U87C G122A, the self-cleavage is 0.13.
As for U15A U39C U47A A59G, the self-cleavage was determined as 0.21.
For U15A G48A A94G U119C U130C, the self-cleavage is 0.43.
For the variant U14G C99U U119C, the self-cleavage worked out at 1.14.
As for U15A A92U U102C A107U A129G, the figure is 0; as for U15A U45C A141G, 0.77; as for U15A U26C A142G, 1.04.
With U15C C19U A30G U85A U130C, the self-cleavage was 0.09.
As to U14C U96A A136G U143C, the self-cleavage is 0.09.
In the case of U15A U46C A138U, the self-cleavage was found to be 2.
As to U15A A30G A140G A142G U143C, the self-cleavage stood at 2.7.
As for U15A U104C U132A, the self-cleavage stood at 1.62.
U14C U46C A138G: the self-cleavage stood at 1.52.
In the case of U15C C19U U29C U115C, the self-cleavage is 1.27.
Take U15C U26C A141G: the self-cleavage amounted to 1.26.
As to U15C U29C A42G A138G A142G, the self-cleavage worked out at 2.76.
Turning to U15C G53A A59G, the self-cleavage was 0.1.
As for U15C U23G G75A A124U, the figure is 0.7; as for U14C U46C A67G A79U A117G, 2.04.
Turning to U15C U62C U100C, the self-cleavage came out at 0.22.
As for U15C G27A U46C A121U, the self-cleavage worked out at 0.9.
Under U15C A24G U134C stands 1.35; under U14C U62C A65U, 0.13; under U14C U87C A136U, 0.
Under U15A A43G U102C G127U stands 0.53; under U15C U81C U87C, 0; under U15A A64G A79G, 1.01.
Turning to U15C C37U U52A G72A U87C C95U U112C A140U, the self-cleavage came out at 0.05.
In the case of U14C U52C A138G, the self-cleavage was found to be 1.25.
Regarding U15C G49A C111U, the self-cleavage turned out to be 0.66.
As for U14C U81C C118U, the self-cleavage came to 1.9.
As for U15A A69G U100C U115C A141G, the figure is 0; as for U14C U85A A92U, 0.23; as for U15C U20C A69G, 0.09.
Turning to U15A A78G A140U, the self-cleavage was 1.03.
In the case of U15C A59G A136C, the self-cleavage was determined as 0.21.
In the case of U15C A22G A24U, the self-cleavage came to 1.31.
As for U15A U102C A124U, the figure is 0.71.
As for U15C U39C U45A C99U U100C U109C A142G, the figure is 1.8.
As for U15A U23A A30U U52A G127A, the figure is 1.25.
U14C U62C U134A: the self-cleavage was found to be 0.05.
On to U15C C131G A138G, for which the self-cleavage came out at 1.53.
On to U15C U52A A129U A138G, for which the self-cleavage came to 1.81.
For U15A U115C A138G, the self-cleavage amounted to 0.33.
Consider U15C C17U U20A U26C A107G A121U, for which the self-cleavage is 0.92.
Take U14C U46G G55A G139A: the self-cleavage was 0.21.
As to U15C U29C U87C, the self-cleavage worked out at 0.43.
Take U14C U112C A136U: the self-cleavage was determined as 1.95.
Regarding U14C U73A G106A, the self-cleavage worked out at 1.6.
For U15A U23C G36A A67G, the self-cleavage came out at 0.6.
For U14C U52C U132C A140G, the self-cleavage was determined as 1.31.
Take U14C U87A U100C U112C: the self-cleavage came out at 0.22.
For U15C A43G G49A U102C A138G, the self-cleavage amounted to 1.34.
On to U15C U39C A59G A79G, for which the self-cleavage is 0.
Take U15A U26A A31C G49U C90U U91C: the self-cleavage is 0.05.
As for U15C U81A U115C, the self-cleavage came to 2.03.
As for U15C U47C U52A A142G, the self-cleavage is 0.
Turning to U15C A43G G83A, the self-cleavage was 0.93.
Take U15C U81C U104A: the self-cleavage stood at 2.12.
In the case of U15C A79G C95U U102C U134A, the self-cleavage was determined as 0.1.
In the case of U15C G88A A138U A141G, the self-cleavage came out at 0.06.
As to U14C U73C U132C, the self-cleavage was 1.44.
Under U15C A24G U47C stands 1.02; under U14C U100C C131U A142G, 1.47.
